The subject of data set [1] is Huh-7 (hepatocellular carcinoma, GPC3-mid). The data set can be described thus: In vitro cytotoxicity of ADCs, 2D monolayer cell culture (CellTiter-Glo). It counts as cell-based. As to the method:
(§1) SNU-475 hepatocellular carcinoma cells were also included as a potential GPC3-negative cell based on mRNA expression. […] In these experiments, the ability of the GPC3-targeting ADCs to specifically kill GPC3 expressing cells was assessed as was the difference in potency between ADCs having DAR8 or DAR4.
(§2) Briefly, cells were seeded in 384-well plates at 1,000 cells/well and treated with a titration of test article, generated in RPMI-1640 (Thermo Fisher Scientific; Cat. No. 15230-162)+10% FBS (Thermo Fisher Scientific; Cat. No. 12483-020). Cells were incubated for 4 days in RPMI-1640+10% FBS at 37° C./5% CO2. After incubation, CellTiter-Glo® reagent (Promega Corporation, Madison, WI) was added to all wells and luminescence corresponding to ATP present in each well was measured using a Synergy™ H1 plate reader (BioTek Instruments, Winooski, VT). The % cytotoxicity value for each treatment was calculated by the following formula: (1−(Luminescence of Treated Cells/Average Luminescence of Untreated Cells))×100. These values were plotted against test article concentration using GraphPad Prism 9 software (GraphPad Software, San Diego, CA).
(§3) The cell growth inhibition (cytotoxicity) capabilities of the humanized antibody BMS-986182 (v33624) and humanized variant M3-H1L1 (v36180) conjugated to various drug-linkers were assessed in a panel of GPC3-expressing cell lines as described below. […]
In general terms: Cellular ATP, detected with luciferase, serves as a proxy for viable cell number.

For data set [2], the system named is FU-97 (gastric carcinoma, GPC3-high). The data set is described as above. Format: cell-based. As to the method:
as §2
The cell growth inhibition (cytotoxicity) capabilities of the humanized antibody BMS-986182 (v33624) and humanized variant M3-H1L1 (v36180) conjugated to various drug-linkers were assessed in a panel of GPC3-expressing cell lines as described below. Cell lines used were GPC3-high FU-97 (gastric carcinoma), JHH-7 (hepatocellular carcinoma), and Hep3B (hepatocellular carcinoma), GPC3-mid NCI-H446 (lung carcinoma), Huh-6 (hepatoblastoma), and Huh-7 (hepatocellular carcinoma), and GPC3-low MKN-45 (gastric carcinoma) cells. […]

Data set [3] relates to panel of GPC3-expressing cell lines. The data set is described as follows: In vitro cytotoxicity of ADCs, 2D monolayer cell culture, summary over cell lines. It counts as cell-based. Particulars: across the cell lines tested. The method, then:
as §1, §2, §3

The nature of data set [4]: Stability of ADCs in mouse plasma (IP-MS). Format: in vitro ADME. Particulars: 1 mg/mL in CD1 mouse plasma, 37 °C, changes over 7 days; DAR8 ADCs. As to the method: ADCs were diluted to reach a final concentration of 1 mg/mL in CD1 mouse plasma from BioreclamationIVT™ (Catalog #MSE00PL38NCXNN). Samples were then incubated at 37° C. for a duration of 7 days. Samples were taken at various timepoints (0, 0.17, 1 and 7 days) and immediately frozen at −80° C. before proceeding with analysis by IP-MS.
IP-MS was performed as follows. […] Following coupling, the beads were incubated with test sample for 1.5 hrs at room temperature to allow for immunocapture. Following incubation and washing using DynaMag™-2 magnet (ThermoFisher Scientific™ Corporation, Waltham, MA), immunocaptured sample was reduced using 50 μL of dithiothreitol (DTT) in PBS (25 mM), pH 7.4, for 1 hr at room temperature. After reduction, sample was eluted by incubating with pH 3.0 buffer (distilled water containing 20% acetonitrile and 1% formic acid) for 1 hr at room temperature. Purified ADC samples were then analyzed by mass spectrometry to quantify DAR or drug loading or kept frozen at −80° C. until further analysis.
Extent of drug loading and percent maleimide ring opening at each time point was graphed using GraphPad Prism™ software (GraphPad Software™, San Diego, CA).

For data set [5], the system named is JHH-7 cell line-derived xenograft. The data set is described as follows: In vivo efficacy, cell line-derived xenograft. Conditions: Example 22, JHH-7 CDX. More on the design: species or system BALB/c nude mice. The method, then: (§4) The studies were carried out as follows. Cancer cells (Table 22.1) suspended in a 1:1 mixture of PBS and Matrigel® were injected subcutaneously into the right front flank region of 6-7 week old female BALB/c nude mice. Tumors were measured using a caliper and tumor volume (V, mm^3) was determined by the formula V=(L×W×W)/2, where L and W is the length and width of the tumor, respectively. When tumors reached a mean volume of ˜140 mm^3, mice were randomized into treatment groups (JHH-7: n=7 per group; NCI-H446: n=6 per group) and injected with a single intravenous dose of test article on day 0 (Table 22.2). Tumor volumes and body weights were monitored twice a week over a 28-day study period. Whole blood was collected retro-orbitally at multiple time points and processed to serum for pharmacokinetic (PK) analysis (as described in Example 23). All JHH-7 tumor-bearing mice were given dietary gel supplements from Day 4 to the end of study.
(§5) The studies were carried out as follows. Cancer cells suspended in a 1:1 mixture of PBS and Matrigel® were injected subcutaneously into the right front flank region of 8-10 week old female BALB/c nude mice as summarized in Table 24.1. When tumors reached a mean volume of 140-155 mm^3, mice were randomized into treatment groups (JHH-7: n=8 per group; NCI-H446: n=6 per group) and injected intravenously with a single dose of test article as identified in Table 24.2. Tumor volumes and body weights were monitored twice weekly over a 28-day study period as described in Example 22. Whole blood was collected retro-orbitally at multiple time points and processed to serum for future PK analysis. Dietary gel supplements were provided to all JHH-7 study mice from day 0 to end of study.
Cancer cells (Table 31.1) suspended in a 1:1 mixture of PBS and Matrigel® were injected subcutaneously into the right front flank region of 8-10 week old female BALB/c nude mice. […] Tumour volumes and body weights were monitored twice weekly over a 28-day study period as described in Example 22. […]

The test system of data set [6] is NCI-H446 cell line-derived xenograft. The data set is described as follows: In vivo efficacy, cell line-derived xenograft. More on the design: species or system BALB/c nude mice. Conditions: Example 22, NCI-H446 CDX. The method, then:
as §4, §5

Data set [7] can be described thus: Pharmacokinetics of ADCs in efficacy model (total IgG ELISA). Format: in vivo, NCI-H446 tumor-bearing BALB/c nude mice. Conditions: NCI-H446 model; for Cmax: total IgG. The method, then:
as §4
(§6) Sample data were analyzed using SoftMax® Pro 7.1 (Molecular Devices, San Jose, CA). Pharmacokinetics parameters were calculated from non-compartmental analysis using Phoenix WinNonlin™ software (Certara, Princeton, NJ).

Test in data set [8]: as above
Format: in vivo, JHH-7 tumor-bearing BALB/c nude mice. Conditions: JHH7 model; for Cmax: total IgG. The method, then:
as §4, §6

The text below walks through data of patent US20250295799A1, “ANTIBODY-DRUG CONJUGATES TARGETING GLYPICAN-3 AND METHODS OF USE” (Zymeworks BC Inc., priority 2022, published 2025).

B1: v36180-MT-GGFG-Compound 141 (conjugate)
heavy: EVQLVQSGAEVKKPGSSVKVSCKASGYTFTDYEMHWVRQAPGQGLEWIGAIDPETGDTAYNQKFKGRATLTADKSTSTAYMELSSLRSEDTAVYYCTRYFSFAYWGQGTLVTVSS[in this place human IgG1 constant region]
light: DVQMTQSPSSVSASVGDRVTITCRSSQSLRHSNGNTYLQWYQQKPGKAPKLLIYKVSNRFSGVPSRFSGSGSGTDFTLTISSLQPEDFATYFCYQSKHVPYTFGQGTKVEIKRTVAAPSVFIFPPSDEQLKSGTASVVCLLNNFYPREAKVQWKVDNALQSGNSQESVTEQDSKDSTYSLSSTLTLSKADYEKHKVYACEVTHQGLSSPVTKSFNRGEC
Usually Cmax stands for the peak of the concentration-time curve. Turning to B1, the “cytotoxicity / targeted killing relative to non-targeting ADC, in words” value in data set [1] and in data set [2] was “slight potency reduction” each time. The “cytotoxic potency compared between ADCs, in words” value in data set [3] was “comparable cytotoxicity to v36180-MC-GGFG-AM-DXd1”. For the same molecule, the “Percent DAR Loss” value in data set [4] is given as 22%. The “Percent Maleimide Ring Opening” value in data set [4] is given as 76%. The “anti-tumor activity, in words” value in data set [5] (single i.v. dose 3 mg/kg) is given as “greater tumor growth inhibition compared to v36180-MC-GGFG-AM-DXd1 DAR8”; in data set [6] (single i.v. dose 3 mg/kg), “tumor regression was observed at study termination in most mice”. Further, the entries for the “Total IgG Half-life” value in data set [7] (3 mg/kg single iv) and in data set [8] (3 mg/kg single iv) were 125 h and 146 h, respectively. Besides, the results for the highest concentration (Cmax) in data set [7] (3 mg/kg single iv) and in data set [8] (3 mg/kg single iv) were 67.2 µg/mL and 74.1 µg/mL, respectively. Also, the figures for the elimination half-life in data set [7] (dose not given) and in data set [8] (dose not given) were 137 h and 146 h, respectively.

B2: v36180-MT-GGFG-Compound 140 (conjugate)
heavy: B1 heavy
light: B1 light
For the molecule B2, the “cytotoxic potency compared between ADCs, in words” value in data set [3] was “weaker potency compared to its DXd1 counterpart”. In addition, in data set [4], the “Percent DAR Loss” value was 30% and the “Percent Maleimide Ring Opening” value came out at 88%. Also, in data set [5] (single i.v. dose 3 mg/kg), the “anti-tumor activity, in words” value is “greater tumor growth inhibition compared to v36180-MC-GGFG-AM-DXd1 DAR8”. In addition, the “anti-tumor activity, in words” value in data set [6] (single i.v. dose 3 mg/kg) was “tumor regression was observed at study termination in most mice”.

B3: v36180-MC-GGFG-AM-DXd1 (conjugate)
heavy: B1 heavy
light: B1 light
On to B3, for which the “Percent DAR Loss” value in data set [4] is 41%. Besides, the “Percent Maleimide Ring Opening” value in data set [4] was found to be 35%. Also, the “anti-tumor activity, in words” value in data set [5] (single i.v. dose, 3 mg/kg and 10 mg/kg) is given as “greater anti-tumor activity over the reference antibody v33624-MC-GGFG-AM-DXd1 DAR8”; in data set [6] (single i.v. dose 3 mg/kg) it was “superior activity over v33624-MC-GGFG-AM-DXd1 DAR8”; in data set [6] (single i.v. dose 10 mg/kg), “strongly inhibited tumor growth”. Also, the “Total IgG Half-life” value was 127 h in data set [7] (3 mg/kg single iv), 137 h in data set [7] (10 mg/kg single iv), 127 h in data set [8] (3 mg/kg single iv) and 144 h in data set [8] (10 mg/kg single iv). For the same molecule, the “Cmax” value is 56.1 µg/mL in data set [7] (3 mg/kg single iv); 233.6 µg/mL in data set [7] (10 mg/kg single iv); “approximately 56 μg/mL” in data set [7] (3 mg/kg single i.v.); roughly 234 µg/mL in data set [7] (10 mg/kg single i.v.); 66.9 µg/mL in data set [8] (3 mg/kg single iv); 271.5 µg/mL in data set [8] (10 mg/kg single iv). In addition, the peak concentration (Cmax) entry in data set [8] (3 mg/kg single i.v.) was “approximately 67 μg/mL”; in data set [8] (10 mg/kg single i.v.), roughly 271 µg/mL. The elimination half-life in data set [7] (3 mg/kg dose) was 127 h; in data set [7] (10 mg/kg dose) it was 137 h; in data set [8] (3 mg/kg dose) it was 127 h; in data set [8] (10 mg/kg dose), 140 h.
